In the supplement of paper PMC10670038:
Counter-ions that a name gives are not always drawn. ± gives the standard deviation of the averaged measurements. Whole data set: some 2,000 compounds, median “relative cell viability vs DMSO, compound + 0.2 uM CuET” near 1, cut for the lowest 2% near 0.25. The list shows a part of the results.

These compounds were tested on TE10 (assay: relative cell viability vs DMSO, compound + 0.2 uM CuET (fraction); TE10 is an esophageal squamous carcinoma line; higher = less cytotoxic). Details: 2 µM; co-treatment: CuET (bis(diethyldithiocarbamate)copper) 0.2 uM; 48 h.
Procedure: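 TE10 ESCC cells (1,000/well, 384-well plates) were treated with Selleck bioactive library compounds at 2 uM combined with 0.2 uM CuET (copper diethyldithiocarbamate) for 48 h. Viability was read by CellTiter-Glo and expressed relative to DMSO wells. Two technical replicates (A, B).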

| Structure (SMILES) | relative cell viability |
| --- | --- |
| Cc1cc(C)c(Nc2ccnc(Nc3ccc(C#N)cc3)n2)c(C)c1 [Dapivirine (TMC120)] | 0.968 ± 0.056 |
| Cc1cc(/C=C2/SC(=S)NC2=O)c(C)n1-c1cccnc1 [Optovin] | 1.34 ± 0.095 |
| O=C(c1ccc(Nc2nccc(-c3cc4ccccc4s3)n2)cc1)N1CCC(N2CCCC2)CC1 [IKK-16 (IKK Inhibitor VII)] | 0.568 ± 0.038 |
| Clc1ccc(CSC(Cn2ccnc2)c2ccc(Cl)cc2Cl)cc1 (stereo unspecified) [Sulconazole Nitrate] | 0.963 ± 0.027 |
| Nc1ncnc2c1ncn2[C@@H]1O[C@H](CO)[C@@H](O)[C@H]1O [Adenosine] | 1.33 ± 0.099 |
| CC1(C)CCC(C)(C)c2cc(NC(=O)c3ccc(C(=O)O)cc3)ccc21 [Tamibarotene] | 1.03 ± 0.025 |
| N[C@@H](Cc1cc(I)c(Oc2cc(I)c(O)c(I)c2)c(I)c1)C(=O)O [L-Thyroxine] | 1.08 ± 0.046 |
| COc1cc(C(=O)O)ccc1NC(=O)[C@@H]1N[C@@H](CC(C)(C)C)[C@](C#N)(c2ccc(Cl)cc2F)[C@H]1c1cccc(Cl)c1F [Idasanutlin (RG-7388)] | 0.918 ± 0.1 |
| O=C(O)C(O)Cc1ccc(O)c(O)c1 (stereo unspecified) [Sodium Danshensu] | 0.918 ± 0.068 |
| Oc1ccc(OC2CCCCO2)cc1 (stereo unspecified) [Deoxyarbutin] | 1.31 ± 0.072 |
| Nc1cccc2c1C(=O)N(C1CCC(=O)NC1=O)C2=O (stereo unspecified) [Pomalidomide] | 1.15 ± 0.096 |
| CCOC(=O)CCNc1cc(N2CCc3ccccc3CC2)nc(-c2ccccn2)n1 | 0.349 ± 0.041 |
| COc1ccc2[nH]c([S+]([O-])Cc3ncc(C)c(OC)c3C)nc2n1 (stereo unspecified) [Tenatoprazole] | 1.21 ± 0.042 |
| Cc1cc(=O)oc2c(C=O)c(O)ccc12 | 1.24 ± 0.086 |
| CN(C)CCOC(c1ccccc1)c1ccccc1 [Diphenhydramine HCl] | 1.069 ± 0.00099 |
| CN(C)CC/C=C1/c2ccccc2Sc2ccc(Cl)cc21 [Chlorprothixene] | 0.948 ± 0.074 |
| Cn1cc(CNCC2CCN(c3ncc(C(=O)NO)cn3)CC2)c2ccccc21 | 0.171 ± 0.017 |
| CC(=O)[C@H]1CC[C@H]2[C@@H]3CCC4=CC(=O)CC[C@]4(C)[C@H]3CC[C@]12C [Progesterone] | 1.07 ± 0.083 |
| CCCN(CCC)S(=O)(=O)c1ccc(C(=O)O)cc1 [Probenecid] | 1.15 ± 0.099 |
| CCNC(=O)Nc1ccc(-c2nc3c(c(N4CCOC[C@@H]4C)n2)CCN(C2COC2)C3)cc1 | 0.919 ± 0.08 |
| CC(NC(=O)Cc1cc(F)cc(F)c1)C(=O)NC(C(=O)OC(C)(C)C)c1ccccc1 (stereo unspecified) | 1.23 ± 0.04 |

| Structure (SMILES) | relative cell viability |
| --- | --- |
| C[C@]12CC[C@@H]3c4ccc(O)cc4CC[C@H]3[C@@H]1CC[C@@H]2O [Estradiol] | 1.07 ± 0.034 |
| C[C@H](NC(=O)/C(C#N)=C/c1cccc(Br)n1)c1ccccc1 | 0.314 ± 0.032 |
| CC(C)c1ccc(NC(=O)Cn2cnc3c2c(=O)n(C)c(=O)n3C)cc1 | 1.04 ± 0.12 |
| CCC(CC)n1ccc2c(C(=O)NCc3c(C)cc(C)[nH]c3=O)cc(C#N)cc21 | 1.27 ± 0.092 |
| CCNC(=O)c1[nH]nc(-c2cc(Cl)c(O)cc2O)c1-c1ccc(OC)cc1 | 0.591 ± 0.052 |
| C=CC(=O)Nc1cc(Nc2nccc(-c3c[nH]c4ccccc34)n2)c(OC)cc1N(C)CCN(C)C | 0.476 ± 0.0093 |
| Cc1ccc(NCCCc2ccccc2)c(N)c1 | 1.06 ± 0.024 |
| C#Cc1cccc(Nc2ncnc3cc4c(cc23)OCCOCCOCCO4)c1 [Icotinib] | 0.983 ± 0.25 |
| C=CC(=O)Nc1cc(Nc2nccc(-c3cn(C)c4ccccc34)n2)c(OC)cc1N(C)CCN(C)C | 0.529 ± 0.063 |
| O=C(O)c1ccc(-c2c[nH]c3ncc(-c4ccccc4)cc23)cc1C1CCCC1 | 1.029 ± 0.0056 |
| Cc1ncc(CO)c(CO)c1O [Pyridoxine HCl] | 1.04 ± 0.16 |
| C[C@H](O)[C@H](O)[C@@H](O)[C@@H](O)C=O [L-(+)-Rhamnose Monohydrate] | 1.15 ± 0.046 |
| COc1ccc2ccc(=O)oc2c1CC=C(C)C [Osthole] | 1.09 ± 0.086 |
| O=C(Nc1nc2cccc(-c3ccc(CN4CCS(=O)(=O)CC4)cc3)n2n1)C1CC1 [Filgotinib (GLPG0634)] | 0.966 ± 0.049 |
| N=C(N)NS(=O)(=O)c1ccc(N)cc1 [Sulfaguanidine] | 1.23 ± 0.043 |
| CC(=O)Oc1ccccc1C(=O)O [Aspirin] | 1.16 ± 0.095 |
| CNS(=O)(=O)CCc1ccc2[nH]cc(C3CCN(C)CC3)c2c1 [Naratriptan] | 1.2 ± 0.1 |
| Nc1nc(NC2CC2)cc(-c2cccc(Cl)c2Cl)n1 | 0.866 ± 0.047 |
| C[C@]12CC[C@H](O)CC1=CC[C@@H]1[C@@H]2CC[C@]2(C)C(n3cnc4ccccc43)=CC[C@@H]12 [Galeterone] | 1.02 ± 0.058 |
| CC1=C(/C=C/C(C)=C/C=C/C(C)=C/C(=O)O)C(C)(C)CCC1 [Tretinoin] | 0.903 ± 0.066 |
| N=C(N)Nc1ccc(C(=O)Oc2ccc3cc(C(=N)N)ccc3c2)cc1 [Nafamostat Mesylate] | 0.781 ± 0.23 |

| Structure (SMILES) | relative cell viability |
| --- | --- |
| Cc1[nH]c2ccccc2c1C1=C(NCCc2ccc(F)cc2)C(=O)N(C)C1=O | 1.17 ± 0.023 |
| O=C(NO)c1cccc(C(=O)NCCc2ccccc2)c1 | 1.32 ± 0.041 |
| CC(=O)Nc1nc2c(Oc3cc(-c4ccc(C(F)(F)F)cc4)ncn3)cccc2s1 | 1.019 ± 0.0092 |
| N[C@@H](Cc1c[nH]c2ccc(O)cc12)C(=O)O [5-hydroxytryptophan (5-HTP)] | 1.22 ± 0.064 |
| O=C(O)c1cc(C(F)(F)F)ccc1N1CC[C@H](OCc2ccccn2)C1 | 1.19 ± 0.033 |
| CC(C)n1nc(-c2ccc3oc(N)nc3c2)c2c(N)ncnc21 | 0.494 ± 0.14 |
| CCCCCOc1ccc(-c2cc(-c3ccc(C(=O)N[C@H]4C[C@@H](O)[C@@H](O)NC(=O)[C@@H]5[C@@H](O)[C@@H](C)CN5C(=O)[C@H]([C@H](O)CC(N)=O)NC(=O)[C@H]([C@H](O)[C@@H](O)c5ccc(O)c(OS(=O)(=O)O)c5)NC(=O)[C@@H]5C[C@@H](O)CN5C(=O)[C@H]([C@@H](C)O)NC4=O)cc3)no2)cc1 [Micafungin Sodium] | 1.04 ± 0.014 |
| N#CSc1cc(SC#N)c(N)nc1N | 0.612 ± 0.04 |
| Oc1ccc2ccccc2c1SSc1c(O)ccc2ccccc12 | 0.842 ± 0.1 |
| COc1cc2nc(N(C)CCCNC(=O)C3CCCO3)nc(N)c2cc1OC (stereo unspecified) [Alfuzosin HCl] | 1.24 ± 0.088 |
| CC1(C)CC(=O)c2c(C(F)(F)F)nn(-c3ccc(C(N)=O)c(N[C@H]4CC[C@H](O)CC4)c3)c2C1 | 0.802 ± 0.12 |
| O=C(O)/C=C/c1ccc(O)c(O)c1 [Caffeic Acid] | 1.1 ± 0.031 |
| O=C(Nc1cccc2cccnc12)c1ccc(N2C(=O)C3C4C=CC(C4)C3C2=O)cc1 (stereo not drawn) [IWR-1-endo] | 0.994 ± 0.1 |
| CCCCc1nc2cc(/C=C/C(=O)NO)ccc2n1CCN(CC)CC [Pracinostat (SB939)] | 0.2435 ± 0.00015 |
| CC(C)c1cc(-c2n[nH]c(=O)n2-c2ccc3c(ccn3C)c2)c(O)cc1O [Ganetespib (STA-9090)] | 0.793 ± 0.17 |
| CC(=O)O[C@]1(C(C)=O)CC[C@H]2[C@@H]3C=C(Cl)C4=CC(=O)[C@@H]5C[C@@H]5[C@]4(C)[C@H]3CC[C@@]21C [Cyproterone Acetate] | 1.03 ± 0.084 |
| COc1ccc(-c2ccc3ncc4c(c3c2)n(-c2ccc(N3CCNCC3)c(C(F)(F)F)c2)c(=O)n4C)cn1 | 0.104 ± 0.0046 |
| O=C(O)COCCN1CCN(C(c2ccccc2)c2ccc(Cl)cc2)CC1 (stereo unspecified) [Cetirizine DiHCl] | 1.19 ± 0.0036 |
| Cc1cc(C)c(-c2csc(NC(=O)c3ccccc3)n2)c(C)c1 | 1.17 ± 0.069 |
| CCCSc1nc(N[C@@H]2C[C@H]2c2ccc(F)c(F)c2)c2nnn([C@@H]3C[C@H](OCCO)[C@@H](O)[C@H]3O)c2n1 [Ticagrelor] | 0.99 ± 0.069 |
| C=CC(=O)Nc1cccc(Nc2nc(Nc3ccc(Oc4ccnc(C(=O)NC)c4)cc3)ncc2F)c1 | 0.79 ± 0.053 |

| Structure (SMILES) | relative cell viability |
| --- | --- |
| CC(NC(=O)c1ccccc1/N=C/c1c(O)ccc2ccccc12)c1ccccc1 (stereo unspecified) [Sirtinol] | 1.05 ± 0.086 |
| Cc1cccc(-c2[nH]c(C(C)(C)C)nc2-c2ccc3c(c2)OCO3)n1 | 0.8195 ± 0.0064 |
| CC(C)(OCc1nn(Cc2ccccc2)c2ccccc12)C(=O)O [Bindarit] | 1.28 ± 0.15 |
| CCCN1CCCC[C@H]1C(=O)Nc1c(C)cccc1C [Ropivacaine HCl] | 1.04 ± 0.042 |
| CC(C)NCC(O)COc1ccc(CCOCC2CC2)cc1 (stereo unspecified) [Betaxolol hydrochloride (Betoptic)] | 0.996 ± 0.13 |
| CCc1nc(N)nc(N)c1-c1ccc(Cl)cc1 [Pyrimethamine] | 0.971 ± 0.015 |
| CCN(C(=O)c1c(O)c2c(Cl)cccc2n(C)c1=O)c1ccccc1 [Laquinimod] | 1.05 ± 0.13 |
| CN1CC(=O)N2[C@H](c3ccc4c(c3)OCO4)c3[nH]c4ccccc4c3C[C@@H]2C1=O [Tadalafil] | 1.14 ± 0.064 |
| CCOc1nc2cccc(C(=O)OCc3oc(=O)oc3C)c2n1Cc1ccc(-c2ccccc2-c2noc(=O)[nH]2)cc1 [Azilsartan Medoxomil] | 1.094 ± 0.0084 |
| CN1c2cc(O)c(N=NC(N)=O)cc2CC1S(=O)(=O)O (stereo unspecified) [Carbazochrome sodium sulfonate (AC-17)] | 0.884 ± 0.033 |
| COc1ccc(NS(=O)(=O)c2sc3ccc(Cl)cc3c2C)cc1N1CCNCC1 | 1.31 ± 0.084 |
| C#CCN[C@@H]1CCc2ccccc21 [Rasagiline Mesylate] | 0.963 ± 0.029 |
| COc1cc(OC2CCN(C)CC2)ccc1Nc1ncc2c(n1)n(C1CCCC1)c(=O)n2C | 1.22 ± 0.28 |
| CCOC(=O)O[C@]1(C(=O)OCCl)CC[C@H]2[C@@H]3CCC4=CC(=O)C=C[C@]4(C)[C@H]3[C@@H](O)C[C@@]21C [Loteprednol etabonate] | 0.966 ± 0.041 |
| CCc1c2c(nc3ccc(O)cc13)-c1cc3c(c(=O)n1C2)COC(=O)[C@]3(O)CC | 0.441 ± 0.02 |
| O=C(NCC1(c2nc(-c3ccccc3)cs2)CCOCC1)c1cccc(-c2noc(C(F)(F)F)n2)c1 | 1.05 ± 0.092 |
| O=C(O)C(=O)O.[NH-][C@@H]1CCCC[C@H]1[NH-].[Pt+2] [Oxaliplatin] | 1.0357 ± 0.00045 |
| Cc1nn(-c2ccccc2)c(C)c1C=NN1CCN(Cc2ccccc2)CC1 | 0.999 ± 0.091 |
